# Data: publication PMC4336329 (PLoS ONE, 2015)
# The campaign covered roughly 310,000 compounds. About 2,200 (0.71%) showed an effect of 50% or more. The effect is printed as a negative number. Some of the results follow.
# Biological target: human ether-à-go-go-related gene (hERG) potassium channel (human, UniProt Q12809)
# Experiment: primary screen, population patch clamp on CHO cells stably expressing hERG
# human ether-à-go-go-related gene (hERG) potassium channel, sequence (Q12809 whole entry, looked up): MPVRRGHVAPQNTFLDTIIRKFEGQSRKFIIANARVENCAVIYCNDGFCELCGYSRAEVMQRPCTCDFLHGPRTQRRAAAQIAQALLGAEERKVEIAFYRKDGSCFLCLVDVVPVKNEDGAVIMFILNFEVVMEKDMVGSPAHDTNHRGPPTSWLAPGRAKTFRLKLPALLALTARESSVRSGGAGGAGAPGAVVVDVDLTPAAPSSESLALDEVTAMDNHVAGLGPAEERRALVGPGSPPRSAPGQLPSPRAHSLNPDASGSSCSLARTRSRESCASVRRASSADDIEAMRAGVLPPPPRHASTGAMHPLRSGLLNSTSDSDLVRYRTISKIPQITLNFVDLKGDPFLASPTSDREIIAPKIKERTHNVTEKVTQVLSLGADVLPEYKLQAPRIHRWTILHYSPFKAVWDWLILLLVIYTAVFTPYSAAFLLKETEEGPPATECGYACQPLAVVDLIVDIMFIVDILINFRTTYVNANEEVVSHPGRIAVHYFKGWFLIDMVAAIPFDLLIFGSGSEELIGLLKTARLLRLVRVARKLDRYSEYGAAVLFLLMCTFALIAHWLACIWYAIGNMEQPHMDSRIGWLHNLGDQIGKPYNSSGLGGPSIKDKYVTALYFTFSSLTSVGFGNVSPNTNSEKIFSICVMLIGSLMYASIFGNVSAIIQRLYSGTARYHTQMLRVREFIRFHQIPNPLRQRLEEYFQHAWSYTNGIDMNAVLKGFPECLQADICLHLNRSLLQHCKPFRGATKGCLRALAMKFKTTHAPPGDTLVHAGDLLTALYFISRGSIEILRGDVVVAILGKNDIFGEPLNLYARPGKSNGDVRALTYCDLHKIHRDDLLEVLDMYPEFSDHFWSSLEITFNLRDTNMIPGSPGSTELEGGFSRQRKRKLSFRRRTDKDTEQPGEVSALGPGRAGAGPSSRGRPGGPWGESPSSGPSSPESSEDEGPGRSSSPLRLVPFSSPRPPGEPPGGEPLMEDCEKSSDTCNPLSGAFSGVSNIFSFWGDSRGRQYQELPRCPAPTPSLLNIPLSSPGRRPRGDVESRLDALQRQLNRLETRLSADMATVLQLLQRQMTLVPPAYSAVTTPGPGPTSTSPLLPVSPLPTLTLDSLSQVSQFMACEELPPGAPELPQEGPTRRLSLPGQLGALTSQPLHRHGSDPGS
row,Structure (SMILES),"hERG current change (%, negative = inhibition) at 1uM [%]"
1,CC(=O)N1c2ccccc2NC2=C(C(=O)CCC2)C1c1ccc(F)cc1 (stereo not shown),6.44
2,COCCNC(=O)c1ccc2c3n(nc2c1)-c1ccc(Cl)cc1CO3,-0.937
3,COCC(=O)N(Cc1cc2ccc(C)cc2[nH]c1=O)c1ccc(OC)cc1,2.24
4,Cc1cccc(Nc2c(F)c(F)c(F)c(F)c2C(=O)O)c1,9.87
5,O=C(NCCc1ccc2c(c1)OCCO2)c1cccc(F)c1,5.26
6,COc1ccc([C@@H]2CC=C(C(=O)O)[C@H](c3ccc(F)cc3)N2S(=O)(=O)c2ccc(Cl)cc2)cc1,16
7,O=C(Nc1cc(C(F)(F)F)ccc1N1CCOCC1)C1Cc2ccccc2CN1C(=O)c1ccco1 (stereo not shown),10.9
8,Cc1occc1C(=O)NNC(=O)c1ccccc1[N+](=O)[O-],15.8
9,CN(Cc1ccccc1)C(=O)COc1ccccc1,8.18
10,O=C1CN(C(=O)COC(=O)CNS(=O)(=O)/C=C/c2ccccc2)c2ccccc2N1,10.2
11,CC(C)OCCCNC(=O)CN1CCN(Cc2ccccc2Cl)C1=O,2.66
12,O=C(Cn1c(=O)n(Cc2ccco2)c(=O)c2ccccc21)NCC1CCCO1 (stereo not shown),12.6
13,O=S(=O)(c1ccccc1)c1nc(-c2ccccc2)oc1NCCCN1CCOCC1,-2.08
14,O=C(O)C1CSC(c2ccc3c(c2)OCO3)N1 (stereo not shown),7.87
15,Cc1ccc(S(=O)(=O)N2CCC(C(=O)OCC(=O)N(C)C3CCS(=O)(=O)C3)CC2)cc1C (stereo not shown),6.56
16,COc1cc(N2CCOCC2)ccc1/C=C1\C(=O)NC(=O)N(C2CCCCC2)C1=O,7.79
17,CCNc1c2c(nc3ccccc13)CC(C)(C)CC2=O.O=C(O)C(=O)O,-38.1
18,Cc1ccc(S(=O)(=O)N2CCOCC2)cc1C(=O)N1c2ccccc2Sc2ccccc21,9.26
19,Cc1ccc(C)c(N(C(=O)Cc2cccs2)C(C(=O)NC2CCCC2)c2ccc(C)o2)c1 (stereo not shown),7.45
20,CC(=O)c1ccc(N2CCN(C(=O)c3noc4c3CSc3ccccc3-4)CC2)cc1,14.9
21,O=C(NCc1ccc(F)cc1)c1ccc(CS(=O)(=O)Cc2ccccc2F)o1,9.27
22,Cc1ccc(NC(=O)CCC(=O)N2CCOCC2)nc1,11.3
23,CC1(C(=O)N/N=C/c2c(F)c(F)c(F)c(F)c2F)CC1(Cl)Cl (stereo not shown),15.2
24,COc1ccc(NC(=O)CSc2nnc(-c3ccncc3)n2CC2CCCO2)c(OC)c1 (stereo not shown),5.44
25,COc1ccc(OC)c(NC(=O)Nc2ccc3c(c2)CCC3)c1,9.13
26,COc1cc(C(CCN2CCCC2)c2c(OC)cc(OC)c3c(C)cc(=O)oc23)cc(OC)c1OC (stereo not shown),-69
27,COC(=O)c1cccc(NC(=O)c2cccs2)c1C,10.4
28,CCC1Oc2ccccc2N(CC(=O)NCCCN2CCC(C)CC2)C1=O (stereo not shown),0.839

row,Structure (SMILES),"hERG current change (%, negative = inhibition) at 1uM [%]"
1,O=C1COc2ccc(S(=O)(=O)Nc3ccc(F)cc3)cc2N1,9.76
2,CCCN(Cc1nnc(-c2ccccc2Cl)o1)C(=O)c1cc2ccccc2o1,5.07
3,Cn1c(SCC(=O)Nc2cc(C(C)(C)C)nn2-c2ccccc2)nc2ccccc21,6.86
4,CS(=O)(=O)N(CC(=O)N1CCOCC1)c1cccc(F)c1,21
5,COc1ccc(NC(=S)N2CCN(c3ccccn3)CC2)cc1OC,12
6,CCOC(=O)C1=C(c2ccccc2)O/C(=C(/C(=O)OC)C(F)(F)F)S1,7.22
7,CCCn1c(SCC(=O)c2ccc3c(c2)OCCO3)nnc1-c1ccco1,12.7
8,Cc1cc(SCC(=O)NN=C2CCN(C(C)C)CC2)c(C)cc1Br,-1.46
9,COc1ccc([N+](=O)[O-])cc1NC(=O)CSCc1cc(C)cc(C)c1,9.81
10,CCOc1ccc(CNc2nnnn2C)cc1OC,8.7
11,CCOC(=O)C(CN1CCCC1)c1ccccc1 (stereo not shown),8.71
12,COc1ccc(OC)c(CNC(=O)c2cc(=O)[nH]c3ccc(S(=O)(=O)N4CCCC4)cc23)c1,13.5
13,O=C(CCNC(=O)c1ccc(Cl)cc1)Nc1ccc(F)cc1F,20.9
14,CC(C)(C)c1ccc(NC(=O)c2ccccc2)c([N+](=O)[O-])c1,3.52
15,CC(=O)O.O=C(NCC1CCCCN1)c1cc(OCC(F)(F)F)ccc1OCC(F)(F)F (stereo not shown),-29.7
16,CC1(C)N=C(c2cccs2)C(C)(C)N1O,11.5
17,CCOC(=O)C1Nc2ccccc2C2c3ccccc3CC12 (stereo not shown),18.1
18,COc1ccc(CN2CCN(C(=O)C3CC(=O)N(C4CCCCCC4)C3)CC2)c(OC)c1OC (stereo not shown),14.8
19,OCC1CCCN(C(=S)Nc2ccc(Oc3ccccc3)cc2)C1 (stereo not shown),12.8
20,CCC(C)[C@H](NC(=O)N1CCn2c1nc1ccccc12)C(=O)NCC1CCCO1 (stereo partly shown),5.23
21,CCC(C)c1ccccc1N1CC(C(=O)NCCC2=CCCCC2)CC1=O (stereo not shown),7.27
22,COC(=O)C(C)NC(=O)C1CCCN1S(=O)(=O)c1cc(C)c(Cl)cc1C (stereo not shown),15.5
23,COC(=O)c1ccccc1NC(=S)NC(=O)c1ccc(C)cc1,9.88
24,Cc1ccc(NC(=O)CN(C)S(=O)(=O)c2ccc3c(c2)c(=O)n(C)c(=O)n3C)cc1,7.08
25,CC(=O)c1cccc(NC(=O)CCNC(=O)c2cccc(C)c2)c1,10.2
26,Cc1ccn2c(=O)nc(SCC(=O)N3CCCCC3)nc2c1,-1.39
27,O=C(CCN1C(=O)/C(=C/C=C/c2ccccc2)SC1=S)Nc1nc2ccccc2s1,16.3
